Test results from the supplement of paper PMC10126150.
Values marked as one replicate rest on one cluster of the flow cell; about a third of the high ones do not repeat.

Tested on: ATP
Experiment: switch fluorescence ratio, 500 uM ATP over buffer (Cy3 cluster intensity, sum of 5 cycles each) (fold (ratio)); higher = stronger signal-on switching upon ATP binding; sequences stand for … in TCGTCGGCAGCGTCAGATGTGTATAAGAGACAGTTTTTTTTTTTTTTTTTTTTTTTTT…TC
Conditions: aptamer strand: ATP DNA aptamer (quencher-CACCTGGGGGAGTATTGCGGAGGAAGG + anchor), 100 nM annealed; ATP concentration: 500 uM; one replicate
Outline: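 The fluorescence ratio divides summed target-cycle Cy3 intensity by summed buffer-cycle Cy3 intensity for each cluster and is averaged per switch-domain sequence. Cy3-labelled switching-strand clusters on a modified Illumina MiSeq flow-cell were annealed to 100 nM quencher-labelled ATP aptamer, then imaged in selection buffer and again after 15 min with 500 uM ATP at 22 °C. Five such cycles were run, with NaOH stripping and re-annealing between them, and clusters outside 100-1000 RFU were excluded.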
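Note: ATP exposure 15 min at 22 °C before imaging.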

CATTGTGAAA gave a switch fluorescence ratio of 0.994.

Work on GAGGGAGTTA yielded a switch fluorescence ratio of 0.972.

In the case of TCGTCTCTAT, the switch fluorescence ratio is reported as 0.968.

CCCAATTATC showed a switch fluorescence ratio of 1.57.

In the case of AGCCCAACAA, the switch fluorescence ratio is reported as 4.76.

With CGTTCCAGGG the switch fluorescence ratio was 1.21.

CCTGAAAGCT showed a switch fluorescence ratio of 1.26.

GGTTAACATG gave a switch fluorescence ratio of 1.01.

TGCTCACCTG was tested, and the switch fluorescence ratio was 1.05.

With AAACCGGCTA the switch fluorescence ratio was 1.01.

With GCAACACCAG the switch fluorescence ratio was 1.25.

For TATGTGAGCG, the switch fluorescence ratio was 0.99.

For GGATCAAATG, the switch fluorescence ratio was 1.02.

CTTGGTTCCA gave a switch fluorescence ratio of 1.05.

CGCCTCATAT was tested, and the switch fluorescence ratio was 1.1.

TACGTTGTAT gave a switch fluorescence ratio of 0.993.

ATATCTCCG showed a switch fluorescence ratio of 1.19.

In the case of TGAGGATTAA, the switch fluorescence ratio is reported as 0.952.

CAATCCTCAA showed a switch fluorescence ratio of 1.31.

GCGCGGGGTC showed a switch fluorescence ratio of 1.03.

Work on AAAATCAGTC yielded a switch fluorescence ratio of 1.07.

TGTCTGAGAA showed a switch fluorescence ratio of 0.95.

ATAATCTAAA showed a switch fluorescence ratio of 0.969.

ATCTGCCTG showed a switch fluorescence ratio of 0.948.

In the case of TGAGCATGGA, the switch fluorescence ratio is reported as 1.02.

For CGCATCACGG, the switch fluorescence ratio was 1.35.

ATAAATTACC showed a switch fluorescence ratio of 1.02.

TAAGAGAGGA gave a switch fluorescence ratio of 1.04.

ATGAACAGTT was tested, and the switch fluorescence ratio was 1.01.

In the case of CGGAGGTCTT, the switch fluorescence ratio is reported as 0.975.

GGTGGCGCCC showed a switch fluorescence ratio of 1.01.

TGGTAGAGCC gave a switch fluorescence ratio of 1.

TTGATCAG showed a switch fluorescence ratio of 1.02.

With AGTAGGAGCG the switch fluorescence ratio was 0.957.

ACCAACGTTG gave a switch fluorescence ratio of 1.01.

In the case of CCAGCGATCA, the switch fluorescence ratio is reported as 1.37.

AAATTTTCT gave a switch fluorescence ratio of 0.995.

AATGAGAGCT was tested, and the switch fluorescence ratio was 0.986.

For AGTTATTACG, the switch fluorescence ratio was 1.01.

With CGGTAAGAAA the switch fluorescence ratio was 1.01.

Work on ATTAATAGT yielded a switch fluorescence ratio of 0.986.

Sequence TCAACGGGTT has a switch fluorescence ratio of 1.03.

Work on CTAAGTAG yielded a switch fluorescence ratio of 1.19.

Sequence TTAAAACCCG has a switch fluorescence ratio of 1.08.

GTACCCTGTG was tested, and the switch fluorescence ratio was 1.04.

AGCGTGGCTT was tested, and the switch fluorescence ratio was 0.985.

GTTAGCAATT was tested, and the switch fluorescence ratio was 1.32.

Sequence AAACGAGCAG has a switch fluorescence ratio of 1.04.

ATATTAATTA gave a switch fluorescence ratio of 0.97.

AAAGTATCAT showed a switch fluorescence ratio of 1.

Work on CAAAGCTACG yielded a switch fluorescence ratio of 1.03.

With TTAAGAGTTG the switch fluorescence ratio was 0.962.

CACCGGCCCC gave a switch fluorescence ratio of 1.1.

Work on TAACGGGATA yielded a switch fluorescence ratio of 1.

For ACGAGAGGCG, the switch fluorescence ratio was 1.03.

In the case of CCTGCCGGAT, the switch fluorescence ratio is reported as 1.07.

ACTTTCGGTG gave a switch fluorescence ratio of 1.01.

Work on ATATGTAAGT yielded a switch fluorescence ratio of 0.963.

TCTTTGACGA gave a switch fluorescence ratio of 0.982.

Sequence ATAACGGCTG has a switch fluorescence ratio of 1.06.

TGTTATATGA gave a switch fluorescence ratio of 0.996.

Work on CACATACCGG yielded a switch fluorescence ratio of 1.34.

GGTGGCACCT gave a switch fluorescence ratio of 1.04.

Sequence AAAGTACAGG has a switch fluorescence ratio of 1.22.

GCATATTTAA was tested, and the switch fluorescence ratio was 1.02.

In the case of TGAGCTCGCG, the switch fluorescence ratio is reported as 0.962.

CTTAATCTGG showed a switch fluorescence ratio of 0.995.

CATTGATGCC was tested, and the switch fluorescence ratio was 1.09.

For GTTATGAT, the switch fluorescence ratio was 1.04.

TGAATATTAG was tested, and the switch fluorescence ratio was 0.986.

TCCAAAACGG was tested, and the switch fluorescence ratio was 1.07.

With TTGAGGACTG the switch fluorescence ratio was 1.06.

CAATTGCGG was tested, and the switch fluorescence ratio was 0.935.

For GTGGGTGGCG, the switch fluorescence ratio was 1.09.

Work on TCCTTAAGC yielded a switch fluorescence ratio of 1.41.

AGTTTGGAAT showed a switch fluorescence ratio of 0.99.

In the case of CGGAAGTCTG, the switch fluorescence ratio is reported as 0.986.

Work on AGGGACTAAG yielded a switch fluorescence ratio of 1.

With CCTGATGCCA the switch fluorescence ratio was 1.01.

AGAATTACGT showed a switch fluorescence ratio of 1.04.

Work on GCAGACCCAT yielded a switch fluorescence ratio of 1.01.

For CAGTTTGGAC, the switch fluorescence ratio was 0.997.

For GCTTATAGGA, the switch fluorescence ratio was 1.

In the case of ATTCCCAGT, the switch fluorescence ratio is reported as 0.994.

ACTGGGAAAT was tested, and the switch fluorescence ratio was 0.995.

TAATGTGCGA gave a switch fluorescence ratio of 1.01.

Work on GACGCCGGGC yielded a switch fluorescence ratio of 1.13.

TGTCGACAGA showed a switch fluorescence ratio of 0.973.

Work on GGCCGTGTTA yielded a switch fluorescence ratio of 0.992.

GAGCGATCAG showed a switch fluorescence ratio of 0.994.

With AACTTTATCA the switch fluorescence ratio was 1.01.

With GATCCCCGCC the switch fluorescence ratio was 1.54.

With CATTGTTCGG the switch fluorescence ratio was 0.999.

CACGGCTTTG was tested, and the switch fluorescence ratio was 1.02.

In the case of TGGTCACGG, the switch fluorescence ratio is reported as 1.01.

With TAGCCTGCCT the switch fluorescence ratio was 1.11.

With CTTGACTAT the switch fluorescence ratio was 0.954.

Work on TATTTAGC yielded a switch fluorescence ratio of 0.961.

With TGAGAAAAAC the switch fluorescence ratio was 1.06.

With ACGAATGTGA the switch fluorescence ratio was 1.04.

ATAGTTAGCC was tested, and the switch fluorescence ratio was 0.991.

CCGGCTGGGC was tested, and the switch fluorescence ratio was 0.988.

AGCTGGTGTT gave a switch fluorescence ratio of 1.05.

For TACAGCTGCT, the switch fluorescence ratio was 0.98.

With CACAGGCTAG the switch fluorescence ratio was 1.01.

CACGTCAGGA gave a switch fluorescence ratio of 1.05.

GGCTCTTGCA showed a switch fluorescence ratio of 1.04.

For CGTTTTGCTC, the switch fluorescence ratio was 1.05.

GACAATTACA was tested, and the switch fluorescence ratio was 1.06.

Work on TGCTATCTAG yielded a switch fluorescence ratio of 1.01.

In the case of TCTGACATGT, the switch fluorescence ratio is reported as 1.02.

Work on ACGCGGTACT yielded a switch fluorescence ratio of 2.11.

In the case of GTTATGCATT, the switch fluorescence ratio is reported as 0.987.

With GGCCATTACC the switch fluorescence ratio was 1.07.

TCTGTTTGAA gave a switch fluorescence ratio of 1.06.

For ATGGCTACCC, the switch fluorescence ratio was 1.08.

With CAAGTATTCG the switch fluorescence ratio was 1.02.

AAAGTGTATG was tested, and the switch fluorescence ratio was 0.958.

In the case of CGACGGCTTA, the switch fluorescence ratio is reported as 1.15.

Work on AACTTTGCGT yielded a switch fluorescence ratio of 0.981.

GGTACTGA was tested, and the switch fluorescence ratio was 1.01.

Sequence TGTTCGTCAA has a switch fluorescence ratio of 1.03.

Work on CATTCTATAC yielded a switch fluorescence ratio of 1.43.

Sequence CCACGCCACC has a switch fluorescence ratio of 1.83.

Sequence AAATTTGAGC has a switch fluorescence ratio of 0.975.

With GCCCGCACCG the switch fluorescence ratio was 1.24.

AAAATCTCGA was tested, and the switch fluorescence ratio was 0.96.

In the case of CATCCCGTGA, the switch fluorescence ratio is reported as 1.22.

Work on TGAGCCTGTT yielded a switch fluorescence ratio of 0.985.

TTTGGCTAT showed a switch fluorescence ratio of 0.988.

In the case of GGCATCTTTT, the switch fluorescence ratio is reported as 1.04.

In the case of TAACTCGTTT, the switch fluorescence ratio is reported as 0.948.

Work on GATGTTGGTT yielded a switch fluorescence ratio of 1.02.

AAGAGCTATC gave a switch fluorescence ratio of 1.07.

In the case of CATTAAATA, the switch fluorescence ratio is reported as 0.966.

In the case of TACGAGTCAT, the switch fluorescence ratio is reported as 1.07.

For AAGTCGCAAG, the switch fluorescence ratio was 0.988.

With ACAGCGTCTT the switch fluorescence ratio was 0.969.

TGTGCTGGGC was tested, and the switch fluorescence ratio was 0.992.

Sequence CCTCGACCAC has a switch fluorescence ratio of 2.76.

In the case of AGGGTTTTT, the switch fluorescence ratio is reported as 1.04.

Work on TGGCACAAAC yielded a switch fluorescence ratio of 0.977.

For ATGAGCATCA, the switch fluorescence ratio was 1.01.

In the case of ACTGCGAAAT, the switch fluorescence ratio is reported as 2.53.

Work on AGATCAATGC yielded a switch fluorescence ratio of 1.51.

With AAGGAGGGCT the switch fluorescence ratio was 1.

AGAATTGAAT gave a switch fluorescence ratio of 0.983.

Sequence TGAAATAGCC has a switch fluorescence ratio of 1.03.

For TGAGAACTCG, the switch fluorescence ratio was 0.997.

With GACGGTTGAA the switch fluorescence ratio was 0.995.

Work on AAGTGCCTTA yielded a switch fluorescence ratio of 1.02.

TGGTCTTTCT showed a switch fluorescence ratio of 1.02.

Sequence TTAGGGAGAC has a switch fluorescence ratio of 1.06.

CACTGTGTAG gave a switch fluorescence ratio of 1.01.
